Laboratory results reported in a collection of fitness landscapes (doi:10.1126/science.1257360).
The list shows a part of the results.

B1: PhoQ; a variant is named by its letters at X, in order, P23837 (parent)
chain: MKKLLRLFFPLSLRVRFLLATAAVVLVLSLAYGMVALIGYSVSFDKTTFRLLRGESNLFYTLAKWENNKLHVELPENIDKQSPTMTLIYDENGQLLWAQRDVPWLMKMIQPDWLKSNGFHEIEADVNDTSLLLSGDHSIQQQLQEVREDDDDAEMTHSVAVNVYPATSRMPKLTIVVVDTIPVELKSSYMVWSWFIYVLSANLLLVIPLLWVAAWWSLRPIEALAKEVRELEEHNRELLNPATTRELTSLVRNLNRLLKSERERYDKYRTTLTDLTHSLKTPLXXLQXXLRSLRSEKMSVSDAEPVMLEQISRISQQIGYYLHRASMRGGTLLSRELHPVAPLLDNLTSALNKVYQRKGVNISLDISPEISFVGEQNDFVEVMGNVLDNACKYCLEFVEISARQTDEHLYIVVEDDGPGIPLSKREVIFDRGQRVDTLRPGQGVGLAVAREITEQYEGKIVAGESMLGGARMEVIFGRQHSAPKDE

Variants of: B1
Experiment: enrichment ratio after two sorts for PhoP signalling (ratio (wild type AVST 3.29)); higher = more functional
Settings: with PhoP (E. coli)
In the case of WKVP, the enrichment ratio is reported as ≤ 0.25. In the case of WYWI, the enrichment ratio is reported as ≤ 0.25. With LDRF the enrichment ratio was ≤ 0.25. In the case of ISMS, the enrichment ratio is reported as ≤ 0.25. In the case of RAEF, the enrichment ratio is reported as ≤ 0.25. AEYL showed an enrichment ratio of 6.74. For GNRY, the enrichment ratio was ≤ 0.25. With GKYD the enrichment ratio was ≤ 0.25. SNND was tested, and the enrichment ratio was ≤ 0.25. In the case of NHKQ, the enrichment ratio is reported as ≤ 0.25. SEMT showed an enrichment ratio of 20. WTPS was tested, and the enrichment ratio was ≤ 0.25. QIAM was tested, and the enrichment ratio was ≤ 0.25. With DIIV the enrichment ratio was ≤ 0.25. With WAPR the enrichment ratio was ≤ 0.25. In the case of QDGW, the enrichment ratio is reported as ≤ 0.25. With KNVD the enrichment ratio was ≤ 0.25. VKRF was tested, and the enrichment ratio was ≤ 0.25. In the case of FIVN, the enrichment ratio is reported as ≤ 0.25. CSDG was tested, and the enrichment ratio was ≤ 0.25. For SVPW, the enrichment ratio was ≤ 0.25. For IVHM, the enrichment ratio was ≤ 0.25. In the case of FKDL, the enrichment ratio is reported as ≤ 0.25. In the case of RSSA, the enrichment ratio is reported as ≤ 0.25. In the case of LFEH, the enrichment ratio is reported as ≤ 0.25. DIKD was tested, and the enrichment ratio was ≤ 0.25. In the case of ENMY, the enrichment ratio is reported as ≤ 0.25. With KYED the enrichment ratio was ≤ 0.25. In the case of TGWL, the enrichment ratio is reported as 10.9. PGWR was tested, and the enrichment ratio was ≤ 0.25. In the case of NVQK, the enrichment ratio is reported as ≤ 0.25. For LEIG, the enrichment ratio was ≤ 0.25. For RGVV, the enrichment ratio was ≤ 0.25. With MTCK the enrichment ratio was ≤ 0.25. With HGRR the enrichment ratio was ≤ 0.25. With INYI the enrichment ratio was ≤ 0.25. With PMII the enrichment ratio was ≤ 0.25. For SALY, the enrichment ratio was 11.8. LYIH was tested, and the enrichment ratio was ≤ 0.25. With TCDN the enrichment ratio was ≤ 0.25. For RTKK, the enrichment ratio was ≤ 0.25. In the case of NMAH, the enrichment ratio is reported as ≤ 0.25. In the case of DLPG, the enrichment ratio is reported as ≤ 0.25. HIML was tested, and the enrichment ratio was ≤ 0.25. For QIWV, the enrichment ratio was ≤ 0.25. With FFNC the enrichment ratio was ≤ 0.25. For RTCR, the enrichment ratio was ≤ 0.25. YICY was tested, and the enrichment ratio was 0.353. With NFFP the enrichment ratio was ≤ 0.25. KDQR was tested, and the enrichment ratio was ≤ 0.25. For EQSA, the enrichment ratio was ≤ 0.25. MRTS was tested, and the enrichment ratio was ≤ 0.25. For RPHM, the enrichment ratio was ≤ 0.25. YVSI was tested, and the enrichment ratio was ≤ 0.25. For NHRW, the enrichment ratio was ≤ 0.25. For RLEV, the enrichment ratio was ≤ 0.25. EYWM was tested, and the enrichment ratio was ≤ 0.25. For WHFE, the enrichment ratio was ≤ 0.25. IFGA was tested, and the enrichment ratio was ≤ 0.25. THDY showed an enrichment ratio of 0.403. LMSC was tested, and the enrichment ratio was ≤ 0.25. HMHS was tested, and the enrichment ratio was ≤ 0.25. MPFE was tested, and the enrichment ratio was ≤ 0.25. With EVCF the enrichment ratio was ≤ 0.25. QALP was tested, and the enrichment ratio was ≤ 0.25. For VHMG, the enrichment ratio was ≤ 0.25. DMLI was tested, and the enrichment ratio was ≤ 0.25. In the case of RIEA, the enrichment ratio is reported as ≤ 0.25. For PNHQ, the enrichment ratio was ≤ 0.25. With VTQW the enrichment ratio was ≤ 0.25. VNPS was tested, and the enrichment ratio was ≤ 0.25. TLLM gave an enrichment ratio of 0.473. In the case of LQRT, the enrichment ratio is reported as ≤ 0.25. In the case of NYSI, the enrichment ratio is reported as ≤ 0.25. With IKTL the enrichment ratio was ≤ 0.25. For IRYY, the enrichment ratio was ≤ 0.25. With HHEE the enrichment ratio was ≤ 0.25. With WMSE the enrichment ratio was ≤ 0.25. SIYN gave an enrichment ratio of 0.257. In the case of RCFT, the enrichment ratio is reported as ≤ 0.25. For NQFK, the enrichment ratio was ≤ 0.25. With IVPT the enrichment ratio was ≤ 0.25. For PREL, the enrichment ratio was ≤ 0.25. With KGHN the enrichment ratio was ≤ 0.25. GEAW was tested, and the enrichment ratio was ≤ 0.25. In the case of RVNN, the enrichment ratio is reported as ≤ 0.25. LLMG was tested, and the enrichment ratio was ≤ 0.25. For RYDE, the enrichment ratio was ≤ 0.25. With TGPD the enrichment ratio was ≤ 0.25. ATQN was tested, and the enrichment ratio was ≤ 0.25. YTTI was tested, and the enrichment ratio was ≤ 0.25. With KHEV the enrichment ratio was ≤ 0.25. In the case of RKDF, the enrichment ratio is reported as ≤ 0.25. VSSV showed an enrichment ratio of 5.58. For PGVM, the enrichment ratio was ≤ 0.25. IGQF was tested, and the enrichment ratio was ≤ 0.25. With WSKF the enrichment ratio was ≤ 0.25. With SVVK the enrichment ratio was ≤ 0.25. MPYM was tested, and the enrichment ratio was ≤ 0.25. For GVRE, the enrichment ratio was ≤ 0.25. ISWW was tested, and the enrichment ratio was ≤ 0.25. With GDYP the enrichment ratio was ≤ 0.25. In the case of RMLC, the enrichment ratio is reported as ≤ 0.25. In the case of SNGT, the enrichment ratio is reported as 5.43. KFHV was tested, and the enrichment ratio was ≤ 0.25. In the case of HRTI, the enrichment ratio is reported as ≤ 0.25. In the case of SPPV, the enrichment ratio is reported as ≤ 0.25. Work on QSYH yielded an enrichment ratio of 2.97. NPPA was tested, and the enrichment ratio was ≤ 0.25. In the case of FWWC, the enrichment ratio is reported as ≤ 0.25. KQSL was tested, and the enrichment ratio was ≤ 0.25. KVMY was tested, and the enrichment ratio was ≤ 0.25. In the case of ETGL, the enrichment ratio is reported as ≤ 0.25. KGRY was tested, and the enrichment ratio was ≤ 0.25. With EPWV the enrichment ratio was ≤ 0.25. RLQC was tested, and the enrichment ratio was ≤ 0.25. For KANK, the enrichment ratio was ≤ 0.25. With SKIN the enrichment ratio was ≤ 0.25. TIRV was tested, and the enrichment ratio was ≤ 0.25. With TNNR the enrichment ratio was ≤ 0.25. For KNHS, the enrichment ratio was ≤ 0.25. TRRY showed an enrichment ratio of 0.321. NSFS was tested, and the enrichment ratio was ≤ 0.25. With IGLF the enrichment ratio was ≤ 0.25. YAYR was tested, and the enrichment ratio was ≤ 0.25. KRLV was tested, and the enrichment ratio was ≤ 0.25. GNLH was tested, and the enrichment ratio was 1.09. In the case of FPSA, the enrichment ratio is reported as ≤ 0.25. With VRSL the enrichment ratio was ≤ 0.25. In the case of QCLY, the enrichment ratio is reported as ≤ 0.25. With GWPF the enrichment ratio was ≤ 0.25. QFFG gave an enrichment ratio of 0.984. With KFER the enrichment ratio was ≤ 0.25. For MTQS, the enrichment ratio was ≤ 0.25. For IQNI, the enrichment ratio was ≤ 0.25. With SIQT the enrichment ratio was ≤ 0.25. MTFY was tested, and the enrichment ratio was 9.39. For VDWS, the enrichment ratio was ≤ 0.25. For KMRA, the enrichment ratio was ≤ 0.25. For GSTL, the enrichment ratio was 6.96. With SDLK the enrichment ratio was ≤ 0.25. Variant MEFS has an enrichment ratio of 11.1. WRKL was tested, and the enrichment ratio was ≤ 0.25. VMIK was tested, and the enrichment ratio was ≤ 0.25. For FPCP, the enrichment ratio was ≤ 0.25. PNQY was tested, and the enrichment ratio was ≤ 0.25. In the case of AVGA, the enrichment ratio is reported as ≤ 0.25. PDGV was tested, and the enrichment ratio was ≤ 0.25. For RQFC, the enrichment ratio was ≤ 0.25. RTLG was tested, and the enrichment ratio was ≤ 0.25. MGIT was tested, and the enrichment ratio was ≤ 0.25. NFHT was tested, and the enrichment ratio was ≤ 0.25. In the case of FFSV, the enrichment ratio is reported as ≤ 0.25. For WYYE, the enrichment ratio was ≤ 0.25. YPVL was tested, and the enrichment ratio was ≤ 0.25. In the case of ICQY, the enrichment ratio is reported as ≤ 0.25. In the case of THTA, the enrichment ratio is reported as ≤ 0.25. For YGTG, the enrichment ratio was ≤ 0.25. For KVPM, the enrichment ratio was ≤ 0.25. With KLTR the enrichment ratio was ≤ 0.25. In the case of FNLH, the enrichment ratio is reported as ≤ 0.25. For ECYK, the enrichment ratio was ≤ 0.25. AVIQ was tested, and the enrichment ratio was ≤ 0.25. For MRFN, the enrichment ratio was ≤ 0.25. For IQRR, the enrichment ratio was ≤ 0.25. In the case of HGFL, the enrichment ratio is reported as ≤ 0.25. For PPDR, the enrichment ratio was ≤ 0.25. For QTCG, the enrichment ratio was ≤ 0.25. In the case of CFTR, the enrichment ratio is reported as ≤ 0.25. YRFD was tested, and the enrichment ratio was ≤ 0.25. In the case of LLWN, the enrichment ratio is reported as ≤ 0.25. For LSQK, the enrichment ratio was ≤ 0.25. For VGHT, the enrichment ratio was ≤ 0.25. With MEYH the enrichment ratio was ≤ 0.25. WYPN was tested, and the enrichment ratio was ≤ 0.25. For WTTW, the enrichment ratio was ≤ 0.25. MRRC was tested, and the enrichment ratio was ≤ 0.25. For KCAL, the enrichment ratio was ≤ 0.25. ESHS was tested, and the enrichment ratio was ≤ 0.25. In the case of MRLI, the enrichment ratio is reported as ≤ 0.25. For ASGQ, the enrichment ratio was ≤ 0.25. Work on MEYM yielded an enrichment ratio of 7.39. With TINL the enrichment ratio was 9.31. For MMVP, the enrichment ratio was ≤ 0.25. In the case of HAIG, the enrichment ratio is reported as ≤ 0.25. With RHDW the enrichment ratio was ≤ 0.25. VGRP was tested, and the enrichment ratio was ≤ 0.25. With QMPC the enrichment ratio was ≤ 0.25. For HPRQ, the enrichment ratio was ≤ 0.25. With KCAK the enrichment ratio was ≤ 0.25. For DNIR, the enrichment ratio was ≤ 0.25. VTAE was tested, and the enrichment ratio was ≤ 0.25. In the case of VQWK, the enrichment ratio is reported as ≤ 0.25. LLMA gave an enrichment ratio of 3.19. In the case of LNQT, the enrichment ratio is reported as ≤ 0.25.
